Residue numbers refer to the chain shown, from its start. In names and notes the source's numbering stands. Results are given in words; binding and its absence hold for the method and conditions named. Some entries that bind do so weakly or less than the wild type. Sequences can lack the tags named with a protein. Each block holds one binder with its values, some of them ahead of it.
Key:
Assay in all cases: LacI/LacO tethering and recruitment assay (immunofluorescence); bait fused to GFP-LacI tethered to chromosomal LacO arrays in human U2OS cells; HA- or V5-tagged prey transiently co-expressed; IF 48 h after transfection, prey intensity at the LacO spot or % of cells; no third Drosophila centromere protein co-expressed
[1] = molecular target: T1, CAL1-GFP-LacI (Drosophila melanogaster), Q9VEN2; conditions: remark: other sources report otherwise
T1 chain: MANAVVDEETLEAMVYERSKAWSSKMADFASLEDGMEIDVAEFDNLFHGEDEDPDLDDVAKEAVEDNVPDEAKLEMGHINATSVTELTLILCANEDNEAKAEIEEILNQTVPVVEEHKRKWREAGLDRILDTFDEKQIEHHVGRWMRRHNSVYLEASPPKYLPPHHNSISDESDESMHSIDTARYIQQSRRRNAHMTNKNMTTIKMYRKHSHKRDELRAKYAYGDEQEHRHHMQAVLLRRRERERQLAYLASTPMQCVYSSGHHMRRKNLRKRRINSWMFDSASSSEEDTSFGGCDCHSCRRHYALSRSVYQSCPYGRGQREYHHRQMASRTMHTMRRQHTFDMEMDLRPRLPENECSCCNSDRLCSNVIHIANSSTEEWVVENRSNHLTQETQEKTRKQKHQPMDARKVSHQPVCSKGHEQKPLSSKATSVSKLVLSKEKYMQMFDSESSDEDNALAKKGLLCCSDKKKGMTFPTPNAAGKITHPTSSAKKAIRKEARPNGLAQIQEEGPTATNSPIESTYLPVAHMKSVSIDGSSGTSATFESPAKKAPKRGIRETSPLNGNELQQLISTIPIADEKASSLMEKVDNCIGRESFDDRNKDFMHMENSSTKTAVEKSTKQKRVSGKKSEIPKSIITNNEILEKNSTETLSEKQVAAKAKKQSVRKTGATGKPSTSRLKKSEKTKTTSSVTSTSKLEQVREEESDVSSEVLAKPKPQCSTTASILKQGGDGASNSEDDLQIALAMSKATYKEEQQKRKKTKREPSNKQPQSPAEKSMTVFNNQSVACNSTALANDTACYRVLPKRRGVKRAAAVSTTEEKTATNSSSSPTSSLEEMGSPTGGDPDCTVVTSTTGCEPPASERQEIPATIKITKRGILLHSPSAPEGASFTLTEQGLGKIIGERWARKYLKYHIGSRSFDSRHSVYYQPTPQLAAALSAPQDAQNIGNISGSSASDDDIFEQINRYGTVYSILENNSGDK

[2] = molecular target: CAL1-GFP-LacI (Drosophila melanogaster) (UniProt Q9VEN2)
[3] = molecular target: T2, GFP-LacI-dCENP-C (Drosophila melanogaster) (UniProt Q9VHP9)
T2 sequence: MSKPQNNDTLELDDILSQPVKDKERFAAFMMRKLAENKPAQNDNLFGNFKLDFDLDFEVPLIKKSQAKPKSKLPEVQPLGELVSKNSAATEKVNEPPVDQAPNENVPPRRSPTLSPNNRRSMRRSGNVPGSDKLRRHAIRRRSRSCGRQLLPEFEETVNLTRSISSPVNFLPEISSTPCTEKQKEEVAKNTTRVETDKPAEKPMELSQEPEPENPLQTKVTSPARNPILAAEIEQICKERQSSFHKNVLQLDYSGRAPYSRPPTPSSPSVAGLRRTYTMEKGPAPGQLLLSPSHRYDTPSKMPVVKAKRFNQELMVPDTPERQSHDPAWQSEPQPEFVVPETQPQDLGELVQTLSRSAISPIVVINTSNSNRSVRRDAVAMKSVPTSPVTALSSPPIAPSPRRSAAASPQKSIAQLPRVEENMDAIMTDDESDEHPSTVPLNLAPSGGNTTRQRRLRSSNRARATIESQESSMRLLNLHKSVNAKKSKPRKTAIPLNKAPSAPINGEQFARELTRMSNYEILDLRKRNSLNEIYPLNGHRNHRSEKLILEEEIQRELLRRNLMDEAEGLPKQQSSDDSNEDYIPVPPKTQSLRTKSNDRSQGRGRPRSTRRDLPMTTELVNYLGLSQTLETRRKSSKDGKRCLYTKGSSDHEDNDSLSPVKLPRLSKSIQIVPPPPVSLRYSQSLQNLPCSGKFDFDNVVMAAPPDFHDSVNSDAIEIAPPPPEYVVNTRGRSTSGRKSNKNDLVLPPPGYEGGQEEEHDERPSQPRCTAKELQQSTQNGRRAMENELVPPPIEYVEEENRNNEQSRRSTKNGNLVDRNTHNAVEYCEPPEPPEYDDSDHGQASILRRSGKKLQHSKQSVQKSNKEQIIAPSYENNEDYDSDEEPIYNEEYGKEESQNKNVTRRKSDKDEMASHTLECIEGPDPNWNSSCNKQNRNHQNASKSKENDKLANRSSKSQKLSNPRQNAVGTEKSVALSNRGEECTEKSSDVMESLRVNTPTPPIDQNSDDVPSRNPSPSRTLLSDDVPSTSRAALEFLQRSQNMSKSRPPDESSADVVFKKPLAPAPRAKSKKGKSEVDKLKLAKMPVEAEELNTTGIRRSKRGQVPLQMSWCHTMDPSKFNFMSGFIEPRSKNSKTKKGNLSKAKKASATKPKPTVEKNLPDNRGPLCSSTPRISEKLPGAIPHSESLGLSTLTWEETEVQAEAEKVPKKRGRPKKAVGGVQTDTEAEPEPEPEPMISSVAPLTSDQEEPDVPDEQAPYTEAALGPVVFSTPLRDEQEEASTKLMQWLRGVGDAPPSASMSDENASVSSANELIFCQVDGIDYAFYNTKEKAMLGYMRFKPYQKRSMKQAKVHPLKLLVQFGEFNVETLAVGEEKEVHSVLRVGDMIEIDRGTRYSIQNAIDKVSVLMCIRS

B1: CAL1-HA, Q9VEN2 1-979 (protein)
chain: T1 chain
binding [1]: binds

B2: HA-dCENP-C L1357E-L1406E (protein, UniProt Q9VHP9 1-1411)
chain: T2 sequence with L1357E, L1406E
binding [2]: no binding | binding [3]: no binding

B5: HA-dCENP-C(1009-1411) (domain or fragment, UniProt Q9VHP9 1009-1411)
chain: VPSRNPSPSRTLLSDDVPSTSRAALEFLQRSQNMSKSRPPDESSADVVFKKPLAPAPRAKSKKGKSEVDKLKLAKMPVEAEELNTTGIRRSKRGQVPLQMSWCHTMDPSKFNFMSGFIEPRSKNSKTKKGNLSKAKKASATKPKPTVEKNLPDNRGPLCSSTPRISEKLPGAIPHSESLGLSTLTWEETEVQAEAEKVPKKRGRPKKAVGGVQTDTEAEPEPEPEPMISSVAPLTSDQEEPDVPDEQAPYTEAALGPVVFSTPLRDEQEEASTKLMQWLRGVGDAPPSASMSDENASVSSANELIFCQVDGIDYAFYNTKEKAMLGYMRFKPYQKRSMKQAKVHPLKLLVQFGEFNVETLAVGEEKEVHSVLRVGDMIEIDRGTRYSIQNAIDKVSVLMCIRS
binding [3]: binds

More lines, now with the values ahead:

binding [2]: binds | binding [3]: binds
B3: HA-dCENP-C(1264-1411) (domain or fragment, UniProt Q9VHP9 1264-1411)
chain: GPVVFSTPLRDEQEEASTKLMQWLRGVGDAPPSASMSDENASVSSANELIFCQVDGIDYAFYNTKEKAMLGYMRFKPYQKRSMKQAKVHPLKLLVQFGEFNVETLAVGEEKEVHSVLRVGDMIEIDRGTRYSIQNAIDKVSVLMCIRS

binding [2]: no binding | binding [3]: no binding
B4: HA-dCENP-C(1264-1411) L1357E-L1406E (domain or fragment, UniProt Q9VHP9 1264-1411)
chain: B3 chain with L94E, L143E

From publication PMC6900781
